Results reported in the supplement of paper PMC4967469.

How the values were obtained:
Assay in all cases: Viability of human cancer cell lines after 72 h of drug (GDSC screen)
XMD11-85h = compound: COc1cc(C(=O)NC2CCN(C)CC2)ccc1Nc1ncc2c(n1)N(C1CCCC1)CCC(=O)N2C(C)C [XMD11-85h]; conditions: top dose 10 µM; top dose inferred
Experimental: (§1)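 Human cancer cell lines in 384-well plates, medium with 10% serum, drug for 72 h over a 256-fold dose range (nine 2-fold or five 4-fold steps up to the top dose). Adherent lines were fixed and stained with the nucleic acid dye Syto60, suspension lines read with resazurin; signal relative to control wells, capped at 0 and 100%. One two-parameter sigmoid per drug and line, fitted in a mixed model over all curves with the slope shared within a line.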

AZD6482 = compound: Cc1cc([C@@H](C)Nc2ccccc2C(=O)O)c2nc(N3CCOCC3)cc(=O)n2c1 [AZD6482]
Experimental: as §1

BMN-673 = compound: Cn1ncnc1[C@H]1c2n[nH]c(=O)c3cc(F)cc(c23)N[C@@H]1c1ccc(F)cc1 [BMN-673]; conditions: top dose 10 µM; top dose inferred
Experimental: as §1

MLN4924 = compound: NS(=O)(=O)OC[C@@H]1C[C@@H](n2ccc3c(N[C@H]4CCc5ccccc54)ncnc32)C[C@@H]1O [MLN4924]; conditions: top dose 1 µM; top dose inferred
Experimental: as §1

[1] = top dose 5 µM, screen: GDSC drug entry 1066, top dose inferred
[2] = top dose 5.12 µM, screen: GDSC drug entry 156

Cell Line | AUC (XMD11-85h) | IC50 (XMD11-85h) [µM] | AUC (AZD6482; [1]) | IC50 (AZD6482; [1]) [µM] | AUC (AZD6482; [2]) | IC50 (AZD6482; [2]) [µM] | AUC (BMN-673) | IC50 (BMN-673) [µM] | AUC (MLN4924) | IC50 (MLN4924) [µM]
RS4-11 (leukaemia, suspension) | 0.891 | 9.92 | 0.675 | 0.914 | 0.624 | 0.682 | 0.648 | 1.55 | 0.835 | 0.578
RT4 (bladder, adherent) | 0.985 | > 10 | 0.987 | > 5 | 0.987 | > 5.12 | 0.781 | 4.39 | 0.891 | > 1
RXF393 (kidney, adherent) | 0.975 | > 10 | 0.711 | 1.57 | 0.238 | 0.0404 | 0.706 | 3.03 | 0.892 | > 1
SBC-1 (small cell lung carcinoma, suspension) | 0.796 | 4.5 | 0.968 | > 5 | 0.956 | > 5.12 | 0.961 | > 10 | 0.733 | 0.28
SCC-4 (head and neck, adherent) | 0.982 | > 10 | 0.851 | 4.97 | 0.939 | > 5.12 | 0.91 | > 10 | 0.942 | > 1
SCC-15 (head and neck, adherent) | 0.925 | > 10 | 0.907 | > 5 | 0.886 | > 5.12 | 0.81 | 7.69 | 0.768 | 0.506
SH-4 (melanoma, adherent) | 0.779 | 6.69 | 0.967 | > 5 | 0.899 | > 5.12 | 0.739 | 4.52 | 0.777 | 0.658
SHP-77 (small cell lung carcinoma, semi-adherent) | 0.987 | > 10 | 0.981 | > 5 | 0.991 | > 5.12 | 0.952 | > 10 | 0.954 | > 1
SIMA (neuroblastoma, adherent) | 0.978 | > 10 | 0.985 | > 5 | 0.943 | > 5.12 | 0.527 | 0.748 | 0.884 | > 1
SJRH30 (rhabdomyosarcoma, adherent) | 0.931 | > 10 |  |  | 0.945 | > 5.12 | 0.511 | 0.67 | 0.83 | 0.654
SK-CO-1 (large intestine, adherent) | 0.983 | > 10 | 0.986 | > 5 | 0.972 | > 5.12 | 0.195 | 0.083 | 0.877 | 0.904
SK-GT-2 (stomach, adherent) | 0.967 | > 10 | 0.949 | > 5 |  |  | 0.862 | 9.3 | 0.794 | 0.488
SK-LMS-1 (soft tissue, adherent) | 0.922 | > 10 | 0.631 | 0.703 | 0.816 | 2.66 | 0.809 | 4.92 | 0.692 | 0.209
SK-LU-1 (lung adenocarcinoma, adherent) | 0.948 | > 10 | 0.875 | > 5 | 0.87 | > 5.12 | 0.656 | 1.91 | 0.882 | > 1
SK-MEL-1 (melanoma, suspension) | 0.993 | > 10 | 0.99 | > 5 | 0.991 | > 5.12 | 0.993 | > 10 | 0.993 | > 1
SK-MEL-2 (melanoma, adherent) | 0.878 | > 10 | 0.987 | > 5 | 0.98 | > 5.12 | 0.94 | > 10 | 0.811 | 0.556
SK-MEL-3 (melanoma, adherent) | 0.97 | > 10 | 0.941 | > 5 | 0.881 | > 5.12 | 0.855 | > 10 | 0.924 | > 1
SK-MEL-30 (melanoma, adherent) | 0.906 | > 10 |  |  | 0.851 | 4.24 | 0.882 | > 10 | 0.91 | > 1
SK-MES-1 (lung squamous cell carcinoma, adherent) | 0.968 | > 10 | 0.841 | 3.92 | 0.578 | 0.533 | 0.832 | 7.21 | 0.933 | > 1
SK-PN-DW (Ewing sarcoma, adherent) | 0.976 | > 10 | 0.908 | > 5 | 0.882 | > 5.12 | 0.664 | 1.82 | 0.943 | > 1
SKM-1 (haematopoietic neoplasm, suspension) | 0.9 | > 10 | 0.629 | 0.738 |  |  | 0.89 | > 10 | 0.771 | 0.424
SLVL (B-cell lymphoma, suspension) | 0.923 | > 10 | 0.937 | > 5 | 0.926 | > 5.12 | 0.883 | > 10 | 0.939 | > 1
SNB75 (glioma, adherent) | 0.95 | > 10 | 0.962 | > 5 | 0.704 | 1.58 | 0.849 | > 10 | 0.928 | > 1
SNG-M (endometrium, adherent) | 0.789 | 4.33 | 0.912 | > 5 | 0.949 | > 5.12 | 0.448 | 0.453 | 0.609 | 0.124
SNU-81 (large intestine, adherent) | 0.966 | > 10 | 0.758 | 2.3 |  |  | 0.98 | > 10 | 0.88 | > 1
SNU-407 (large intestine, adherent) | 0.933 | > 10 | 0.852 | 4.91 |  |  | 0.713 | 2.79 | 0.827 | 0.757
SNU-C1 (large intestine, suspension) | 0.901 | > 10 | 0.902 | > 5 | 0.942 | > 5.12 | 0.961 | > 10 | 0.97 | > 1

A lower IC50 marks a more sensitive line; fits outside the tested doses are given as limits. The AUC spans the tested range (256-fold, ending at the top dose) of the same fit; values near 1 show little effect. An inferred top dose was calculated from the reported fits. For part of these data: Where an entry number is given, a second screen of the drug exists; the two often differ.
